Measurements reported in PubChem BioAssay AID1963576 (National Center for Advancing Translational Sciences (NCATS), 2024).
Screen size: about 46,000 compounds; about 60 (0.1%) were called active. About 3% were inconclusive and are not listed. The call rests on the fitted dose curve; in most records, active means well fitted inhibition curve with a large enough effect; inconclusive means small, poorly fitted or top-dose-only effect; inactive means no such curve, though single readings can be large or run the other way. The list shows a part of the results.

Test: Primary qHTS assay for Inhibitors of ovarian cancer metastasis using an organotypic tumor microenvironment (TME) model. Further: nearly all actives have a fitted effect of over 65% in size.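 On activity change, negative = inhibition: plate controls were DMSO wells for no effect and tomatine positive control wells for full effect.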
Conditions: SKOV3ip1-GFP adhesion/invasion on 3D omental model, fluorescence; series mostly up to 45.8 µM; activity change, negative = inhibition: at the top concentration
Method in brief: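 qHTS, 4-pt dose (0.36-46 umol/L); SKOV3ip1-GFP, 1,200 cells/well, no FBS; primary omental fibroblast/mesothelial co-culture 48 h pre-grown; 2 h RT + 16 h 37 C; PBS wash, 4% PFA; GFP count 488/509 nm.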

Activity change, negative = inhibition, inactive:
COc1cc2ncnc(-n3nc(-c4ccccn4)nc3N)c2cc1OC 4.6%
O=C(CSc1nc2ccsc2c(=O)n1-c1ccc(Br)cc1)NCc1ccccc1 -3.89%
CCc1cccc(C)c1NC(=O)CCCn1nc(C)c2sc3ccccc3c2c1=O 23.3%
Cc1cc(N2CCCCC2)nc2ccc(NC(=O)/C=C/c3ccc(OCCC(C)C)cc3)cc12 2.52%
Cc1ccccc1Cn1cnc2nc3c(cc2c1=O)CC(C)CC3 (stereo not given) -8.69%
CC1CCN(c2ccc(-c3nc(-c4ccccc4)no3)cc2[N+](=O)[O-])CC1 -3.11%
COc1ccc(NC(=O)NCCn2nnc3cc(S(=O)(=O)N(C)C)ccc32)cc1 -25.4%
CCOC(=O)c1c(C)[nH]c(C)c1S(=O)(=O)N(C)CC(=O)NCc1cccc(Br)c1 0.987%
O=C(NCc1nc2ccccc2[nH]1)c1cccc(Cl)c1 2.11%
COCCCNC(=O)c1ccc2c(c1)nc1n2CCCCC1 -8.09%
Cc1ccc(NC(=O)Cn2cc3c(n2)CCCC3)c(C)c1 11.1%
COc1ccc(NC(=O)CSc2nc(-c3cccs3)cc(C(F)(F)F)n2)c(OC)c1 8.58%
O=C(NC1CCCCC1)c1ccc(CSc2nc3ccncc3n2Cc2ccccc2F)cc1 -36.1%
Cc1ccc(Cl)cc1NC(=O)CCn1c(=O)c2cccn2c2cccnc21 2.92%
CCOc1ccc2nc(N3CCC(C(=O)Nc4cc(C)ccc4C)CC3)sc2c1 -1.01%
Cc1noc(Cn2c(=O)c3cc4c(cc3n(CC(=O)Nc3ccccc3F)c2=O)OCO4)n1 0.382%
Oc1c(C(c2ccccc2Cl)N2CCN(Cc3ccccc3)CC2)sc2nc(-c3ccco3)nn12 (stereo not given) -5.84%
CCc1ccc(NC(=O)CSc2ccc(-c3cccs3)nn2)cc1 -12.5%
O=C(CSCc1cnn(-c2ccccc2)c1-n1cccc1)NCc1ccc(F)cc1 3.66%
CCN(CC)CCCNC(=O)CSc1nc(-c2ccc(OC)cc2)cc(C(F)(F)F)n1 -9.32%
CCOc1ccc(NC(=O)c2ccc3snnc3c2)cc1 -12.5%
CCOC(=O)c1cnc2ccc(OCC)cc2c1N1CCN(c2ccccc2F)CC1 7.89%
FC(F)(F)c1cc(-c2cccc(Br)c2)nc2ncnn12 31.1%
CCOC(=O)c1ccc(CN(Cc2ccccc2)S(=O)(=O)c2ccc(Cl)cc2)cc1 1.28%
Cc1cccc(-c2nc(CSc3nncn4c3cc3sccc34)c(C)o2)c1 8.51%
CC(C)NC(=O)C1CCC(Cn2c(=O)c3sccc3n(CC(=O)Nc3ccccc3)c2=O)CC1 (stereo not given) -1.91%
CCOc1ccccc1-c1noc(CSc2nnc(-c3ccccc3)n2-c2cccc(C)c2)n1 -4.26%
C[C@@H]1C[C@H]2[C@@H]3CCC4=CC(=O)C=C[C@]4(C)[C@@]3(Cl)[C@@H](O)C[C@]2(C)[C@@]1(OC(=O)c1ccco1)C(=O)CCl 17.6%
CCOc1ccc(NC(=O)c2ccc3c(SCC(=O)O)c4c(nc3c2)CCC4)cc1 -1.45%
COc1cc(-c2nc3ccccn3c2Nc2ccccc2C)ccc1O -18.9%
CCOc1ccccc1NC(=O)COC(=O)c1cn(CC)c2nc(C)ccc2c1=O 9.89%
CCOc1ccc(S(=O)(=O)NCC(c2ccco2)S(=O)(=O)c2ccc(C)cc2)cc1 (stereo not given) -1.46%
COc1ccc(Nc2cc(C(=O)NCCCN(C)Cc3ccccc3)c3ccccc3n2)c(OC)c1 -26.2%
COc1ccccc1C(=O)Nc1ccc(NC(=O)c2cccs2)cc1 -9.74%
CC1CCN(c2cc3c(cc2F)c(=O)c(S(=O)(=O)c2cccc(Cl)c2)cn3Cc2ccccc2)CC1 -3.06%
COc1ccccc1CNS(=O)(=O)c1ccc(-c2cc(C(F)(F)F)on2)s1 6.14%
CC1CCc2c(sc(NC(=O)Cn3nnc(-c4ccc(C(F)(F)F)cc4)n3)c2C#N)C1 (stereo not given) 12.6%
COc1ccc(C2=C(C(C)=O)Sc3nnc(-c4ccc(C)cc4)n3N2C(C)=O)cc1OC -11.3%
COc1ccc(NC(=O)C(=O)NCCc2sc(-c3ccc(Cl)cc3)nc2C)cc1 4.95%
Cn1nc(-c2ccccc2F)c2cc(C(=O)NCc3ccc(Cl)cc3)sc21 2.77%
O=C(Cc1ccc(NC(=O)N2CCCCc3ccccc32)cc1)NCc1ccccc1Br 6.05%
Cc1cccc(CCNC(=O)C2CCC(CNS(=O)(=O)c3c(C)cc(C)cc3C)CC2)c1 (stereo not given) 22.4%
COc1cc(Cl)c(C)cc1NC(=O)Cn1cc(S(=O)(=O)N2CCN(c3ccccc3F)CC2)c2ccccc2c1=O 9.54%
CCc1ccc(NC(=O)CSc2nc3n[nH]c(C)c3c(=N)n2-c2ccc(C)cc2)cc1 -33.3%
O=C(NCc1ccc(F)cc1)c1c2c(nc3ccccc13)C(=O)N(C1CCCCC1)C2 -16.6%
COc1ccccc1CNc1ccc(-c2nc(-c3ccccn3)no2)cc1[N+](=O)[O-] -2.34%
Cc1ccc(NC(=O)CN(C)S(=O)(=O)c2ccc3c(c2)n(C)c(=O)c(=O)n3C)c(C)c1 3.96%
O=C(CCC1N=C2c3ccccc3N=C(SCC(=O)Nc3ccccc3F)N2C1=O)NCc1ccco1 (stereo not given) -0.919%
Cc1cccc(NS(=O)(=O)c2ccc3[nH]c(=O)[nH]c3c2)c1C -1.65%
CCOc1ccc(-c2c(C)nn3c(C)c(C(=O)NCc4cccc(OC)c4)cnc23)cc1OCC -4.57%
CCc1ccc(CN2C(=O)c3ccccc3C2C(=O)NC2CCCCCC2)cc1 (stereo not given) 1.44%
COc1ccc(C(=O)Nc2cnc3ccccn3c2=O)cc1 -22.5%
CCOC(=O)c1ccc(NC(=O)CC2C(=O)N(c3ccccc3)C(=O)N2Cc2ccc(C)cc2)cc1 (stereo not given) -4.39%
CCOc1cc(C(=O)N(Cc2nc(-c3ccc(C)cc3)no2)C(C)C)cc(OCC)c1OCC -0.923%
COc1ccc(-n2ncc(C(=O)N3CCN(Cc4ccccc4)CC3)c2C2CCN(C(=O)OC(C)(C)C)CC2)cc1 3.68%
CC(=O)Nc1ccc(S(=O)(=O)NCc2ccc3c(c2)CCN3C(C)=O)cc1 -8.45%
CCc1ccccc1Nc1nn2c(=O)c3ccc(C(=O)NC4CCC(C)CC4)cc3nc2s1 (stereo not given) -10.5%
O=C(Nc1ccc2oc(-c3ccccc3)nc2c1)c1ccc2ccccc2c1 -14.8%
COc1cc2ncnc(Nc3cccc(Cl)c3)c2cc1OC 3.99%
COc1cc2c(cc1OC)C(COc1ccc3c(C)cc(=O)oc3c1)N(C(=O)c1cccc(OC)c1OC)CC2 (stereo not given) 3.36%
Clc1ccc(OCc2nc(-c3ccc(-n4cccc4)cc3)no2)cc1 1.77%
O=c1oc2cc(O)ccc2s1 -19.6%
O=C(Nc1ccccc1OCc1cc(=O)n2ccccc2n1)c1cccc(Br)c1 -6.64%
Cc1cc(C)cc(NC(=O)CSc2oc(-c3ccco3)nc2S(=O)(=O)c2ccccc2)c1 -14.7%
Cc1cccc(N2CCN(C(=O)c3ccc4c(c3)c(C)c(C)n4C)CC2)c1C 28.1%
CCOc1ccc(NC(=O)N2CCC(CN3CCCCCC3)CC2)cc1 2.2%
CC(=O)N1CCc2c(sc3nc(SCC(N)=O)n(-c4ccc(F)c(Cl)c4)c(=O)c23)C1 -1.31%
Cc1ccc(CN2CCSc3ccc(C(=O)Nc4cc(C)cc(C)c4)cc32)cc1 4.29%
CN(C(=O)CSc1nnc(-c2ccc([N+](=O)[O-])cc2)o1)C1CCCCC1 -23.1%
COc1ccc(CCNC(=O)Cn2c(=O)cc(C(F)(F)F)c3c(C)nn(C)c32)cc1OC 1.32%
Clc1ccc(Nc2c(-c3cccs3)nc3ccc(Cl)cn23)cc1 -26%
Cc1ccc(Cl)cc1NC(=O)c1sc2nc(-c3ccccc3)cn2c1C 15.9%

outcome, inactive:
CCc1cccc(C)c1NC(=O)CCCN1C(=O)C(c2ccccc2)Oc2cccnc21 (stereo not given)
O=C(Cn1c(=O)c2ccccc2n2nncc12)Nc1cccc(F)c1
Cc1nc(N2CCCC2)c2c(C(=O)Nc3ccc(Br)cc3F)c(C)oc2n1
CCOC(=O)C1CCC(CN(Cc2ccc(OC)cc2)S(=O)(=O)c2ccc(F)c(C(=O)Nc3cc(C)ccc3C)c2)CC1 (stereo not given)
CC(C)Oc1ccc(CNC(=O)C2CCN(C(=O)N3CC(C)Oc4ccccc43)CC2)cc1 (stereo not given)
CC(=O)c1cc(-c2ccccc2)n(CC(=O)NCCc2ccc(C)cc2)c1C
COc1ccc(-c2csc3nc(-c4ccccc4)oc(=O)c23)cc1OC
CCOC(=O)c1c(Nc2cccc(C(=O)OC)c2)nnc(-c2ccccc2)c1-c1ccccc1
O=C(Nc1cccc(C(F)(F)F)c1)N1CCC(CN2CCCCCC2)CC1
COc1ccccc1NC(=O)N1CCN(c2nnc(C)c3c(C)n(-c4ccc(Cl)cc4)nc23)CC1
COc1ccc(CC(=O)NCCc2sc(-c3ccc(Cl)cc3)nc2C)cc1OC
COc1ccc(OC)c(NC(=O)CCNS(=O)(=O)c2cccc3nsnc23)c1
N#Cc1ccc(OC(=O)c2cc(-c3ccc(Cl)cc3)on2)cc1
CCOC(=O)c1c(NC(=O)c2ccc(S(=O)(=O)N3CCC(C)CC3)cc2)sc2c1CCN(C(C)C)C2
COc1ccc(CCNC(=O)CCCn2c(=O)c3ccccc3n(CC(=O)Nc3cccc(C)c3)c2=O)cc1OC
Cc1nn(C(=O)COc2ccc(Cl)cc2)c(C)c1Sc1ccccc1
Cc1oc(-c2ccccc2)nc1Cn1c(SCc2cccc(C(F)(F)F)c2)nc2cccnc21
CC(=O)N1c2ccc(S(=O)(=O)N3CCCCCC3)cc2CC1C(=O)NCc1ccccc1 (stereo not given)
COCCn1c(C)cc(O)c(C(c2ccccc2)N2CCN(CCO)CC2)c1=O (stereo not given)
Cc1ccc(Cl)cc1NC(=O)CCCn1c(=O)c2cccn2c2ccccc21
Cc1ccc2c(n1)sc1c(=O)n(-c3cccc(C(F)(F)F)c3)nnc12
COc1ccc2c(c1)c1c(c(=O)n(Cc3ccccc3)c(=O)n1CC(=O)Nc1cc(C)cc(C)c1)n2C
COc1ccc(-c2nc3scc(CCNS(=O)(=O)c4cc(F)ccc4OC)n3n2)cc1OC
